# Reference: the supplement of paper PMC12217912
# This is one part of the list. The full chains were built here from the parent and the listed change. Inactive controls read about 0.05.
# B1: TEV protease; numbered along this chain (parent)
# chain: MGESLFKGPRDYNPISSSICHLTNESDGHTTSLYGIGFGPFIITNKHLFRRNNGTLVVQSLHGVFKVKDTTTLQQHLVDGRDMIIIRMPKDFPPFPQKLKFREPQREERICLVTTNFQTKSMSSMVSDTSCTFPSGDGIFWKHWIQTKDGQCGSPLVSTRDGFIVGIHSASNFTNTNNYFTSVPKNFMELLTNQEAQQWVSGWRLNADSVLWGGHKVFMVKPEEPFQPVKEATQL
# Variants of: B1
# Assay: raw area under fraction-flipped curve 0-4 h after induction (AUC4h, not background-subtracted), DNA-recorder readout of cleavage of the substrate (dimensionless); higher = more cleavage of the substrate by the protease variant
# Details: temperature: 34 °C; time window: 0-4 h after rhamnose induction
# Description: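 In vivo DNA recorder in E. coli TOP10(DE3) ΔrhaA at 34 °C. Each TEVp single-site mutant (parent TEVp 0) is paired with a single-site variant of the 7-mer TEVs (canonical ENLYFQ|S). The substrate sits between flexible linkers in a Bxb1-sfGFP-TEVs-SsrA fusion, so cleavage stabilises Bxb1 and speeds flipping of a recombination array, read by NGS. The value is the raw area under the fraction-flipped curve over 0-4 h after rhamnose induction (AUC4h), with ≥20 reads per time point. It is not background-subtracted; inactive controls average about 0.047.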
# 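Also: Bxb1 expression induced with 0.2% (w/v) L-rhamnose at OD600 near 0.5, cultures sampled hourly, flipped fraction per protease–substrate barcode pair counted by paired-end Illumina sequencing.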
Variant,area with substrate ENLYFQC,area with substrate ENLYFQG,area with substrate ENLYFQH,area with substrate ENLYFQI,area with substrate ENLYFQL,area with substrate ENLYFQM,area with substrate ENLYFQP,area with substrate ENLYFQS,area with substrate ENLYFQW,area with substrate ENLYFQD,area with substrate ENLYFQV,area with substrate ENLYFQK,area with substrate ENLYFQN,area with substrate ENLYFQR,area with substrate ENLYFQF,area with substrate ENLYFQY,area with substrate ENLYFQT,area with substrate ENLYFQE,area with substrate ENLYFQQ
R87W,0.121,0.0872,0.0843,0.0638,0.0539,0.0831,0.0645,0.0934,0.0901,,,,,,,,,,
R87K,0.108,,,0.0531,,,,0.114,,0.115,0.0787,,,,,,,,
R87P,0.0594,,,0.0494,0.0612,,,0.0608,,,,0.0555,0.0426,0.051,,,,,
K120M,0.112,0.11,0.0712,0.0469,0.0857,0.0697,0.066,0.0987,0.0677,0.0688,,0.063,0.0607,0.0595,0.0758,0.072,,,
T55K,0.148,0.107,0.0831,0.0548,0.0606,0.0921,0.0546,0.103,,0.0727,0.0623,0.0638,0.0808,0.0611,,0.0741,0.0604,,
L77M,0.0756,,,0.0564,0.0724,0.064,,0.073,0.0572,,0.0468,0.0678,,0.0626,,,0.0755,0.0652,
K68M,0.0903,0.106,,0.0528,0.0541,0.102,0.0577,0.0986,0.0567,,0.0636,,0.053,0.0656,0.0906,0.0772,,,0.0805
K68N,0.133,0.0934,0.0638,0.0557,0.0584,0.106,,0.0997,0.102,,,,0.0862,,,0.0683,0.0703,,
I145H,0.0888,,0.0838,,0.063,0.121,,0.0899,0.0615,0.0784,0.06,0.0525,,0.0651,,0.0788,0.0879,,
R106L,0.144,,0.0955,0.0297,,0.0958,0.0587,0.115,0.0984,,0.0634,0.0645,,0.0557,,,0.0536,,0.104
D82E,0.0679,0.135,,0.0654,,0.0981,,0.0755,0.0588,,0.0701,0.0929,0.0431,0.0639,,,0.0638,,
T132W,0.0574,,0.0525,0.0366,0.0499,,0.046,0.0594,0.0536,0.0437,0.037,0.0574,0.0579,0.0662,0.055,,0.0549,,0.0436
V57C,0.0888,0.0748,0.101,,0.0647,,,0.099,0.0733,,0.07,0.0593,,,0.109,0.0684,0.0461,0.0583,
V57D,0.137,0.0964,0.0834,0.0143,0.052,0.103,,0.103,,0.0892,,0.0652,0.0923,0.0593,,0.0808,0.059,,
P93R,0.106,,,,,,,0.102,,,,,,,0.0613,,,,
G54F,0.0639,,0.0685,,,,,0.075,,,0.0382,,0.0652,0.05,,0.0478,0.0595,,
P134K,0.0038,,,0.0723,0.0448,0.106,0.0663,0.0941,,,0.0552,,0.0731,0.0575,,,,,0.054

Variant,area with substrate ENLYFQC,area with substrate ENLYFQG,area with substrate ENLYFQH,area with substrate ENLYFQI,area with substrate ENLYFQL,area with substrate ENLYFQM,area with substrate ENLYFQP,area with substrate ENLYFQS,area with substrate ENLYFQW,area with substrate ENLYFQD,area with substrate ENLYFQV,area with substrate ENLYFQK,area with substrate ENLYFQN,area with substrate ENLYFQR,area with substrate ENLYFQF,area with substrate ENLYFQY,area with substrate ENLYFQT,area with substrate ENLYFQE,area with substrate ENLYFQQ
P134S,0.133,0.0776,0.0844,0.0578,0.0502,0.0699,0.0548,0.0938,,0.0739,,,0.0552,0.0627,,,0.0597,,
G138D,0.119,0.0592,,,0.0571,,,0.0908,0.0562,,,0.0687,,0.063,0.0706,,0.0535,,
G138C,0.117,,,,0.0783,,,0.092,,,,,,,,,0.0694,,0.0662
T71M,0.089,,0.084,0.0583,,0.0839,,0.0933,0.0861,0.0352,0.057,,,0.0561,,0.0381,,,0.0737
T71I,0.119,,,0.0676,0.0465,0.0794,,0.091,0.0659,,,0.063,,0.067,,,0.0571,,0.0676
T159F,0.104,,,,0.0364,,,0.102,0.0682,,,,,,,,,,
N172K,0.0483,0.0655,0.0947,,0.0662,0.0529,0.0361,0.061,0.066,,,0.0517,0.053,,,0.0437,0.0578,,
H143I,0.0532,0.0491,,,0.0545,0.0705,,0.0649,,,,0.0621,,0.0573,,,,,
G63C,0.0925,0.0962,0.0557,0.0629,0.0592,0.0736,0.0446,0.0938,0.0558,0.0735,0.068,0.0458,0.0797,0.0548,0.0704,0.0778,0.0594,,
G63V,0.0958,0.0892,0.0639,0.0573,,0.0856,,0.0875,,,,0.0356,0.0779,0.041,,0.079,0.0601,0.0547,0.069
W141V,0.064,0.132,,0.106,0.056,0.0538,,0.0679,0.0667,0.0643,,,0.061,0.0524,,0.0297,0.0489,,
W141Y,0.132,,,,0.0458,0.0694,,0.0882,,,,0.0673,0.0692,,,,,,
D149C,0.085,,0.0675,,0.0594,0.0608,,0.104,,,,0.0668,0.0738,0.0557,,0.0631,0.0657,,
D149H,0.0837,0.0948,0.0639,0.0401,0.0544,,,0.0755,0.0495,,0.0416,,,0.0368,,,,,
P104Q,0.0448,,,,,,0.0591,0.0491,0.035,0.0457,,,,0.0411,,,,,
L73F,0.0738,,,,0.0569,0.0668,,0.069,0.0575,0.0578,,0.0588,,,,,0.0827,,
K90Y,0.114,,0.0791,0.0534,,,,0.1,0.0361,,0.0733,0.0766,0.0804,0.0637,,,,,
